Laboratory results published in paper PMC3287209 (Nucleic Acids Research, 2012).

Target: XRCC4 wild-type (human, UniProt Q13426)
Test: native gel or EMSA

B1: XLF–K293A (natural protein)
chain: not shown
- binding result: binds
